Assay: Protonation constants (log K) of ligands by UV-visible spectrophotometric titration vs. pH
Type: physicochemical
Conditions: Solvent MeOH/H2O (80/20 w/w)
Experimental: For ligand 10a, protonation constants of the ligand were studied in both media while complexation studies were carried out only in the mixed solvent for solubility reasons.

Row | log K LH2 | log K LH3 | Structure (SMILES)
1 | ∼−0.9 |  | O=c1cncc(-c2ccccc2)n1O [Ligand 10a, 1-Hydroxy-6-phenylpyrazin-2(1H)-one]
2 | 5.96(1) | 0.94(1) | Cc1nc(Cc2ccc(O)cc2)c(=O)n(O)c1C [Ligand 6d, 1-Hydroxy-3-(4-hydroxybenzyl)-5,6-dimethylpyrazin-2(1H)-one]
3 | 0.66(1) |  | Cc1nc(Cc2ccccc2)c(=O)n(O)c1C [Ligand 6c, 1-Hydroxy-3-benzyl-5,6-dimethylpyrazin-2(1H)-one]

— publication PMC8886574, “Synthesis, physicochemical characterization and neuroprotective evaluation of novel 1-hydroxypyrazin-2(1H)-one iron chelators in an in vitro cell model of Parkinson's disease” (Dalton Transactions (Cambridge, England : 2003), 2022)
